# According to patent publication US6670161B1, “Compositions and methods for template-dependent enzymatic synthesis of nucleic acid” (The Board of Trustees of the Leland Stanford Jr. University, priority 1991, dated 2003):
# Target: T1, recombinant human DNA polymerase α (Homo sapiens, UniProt P09884)
# T1 construct: AcHDP α, expresses the full length recombinant human DNA polymerase α catalytic subunit from its natural ATG start codon; made in house; host or cells: Spodoptera frugiperda Sf9 cells infected with AcHDPα baculovirus
# T1 sequence (P09884 1-1462): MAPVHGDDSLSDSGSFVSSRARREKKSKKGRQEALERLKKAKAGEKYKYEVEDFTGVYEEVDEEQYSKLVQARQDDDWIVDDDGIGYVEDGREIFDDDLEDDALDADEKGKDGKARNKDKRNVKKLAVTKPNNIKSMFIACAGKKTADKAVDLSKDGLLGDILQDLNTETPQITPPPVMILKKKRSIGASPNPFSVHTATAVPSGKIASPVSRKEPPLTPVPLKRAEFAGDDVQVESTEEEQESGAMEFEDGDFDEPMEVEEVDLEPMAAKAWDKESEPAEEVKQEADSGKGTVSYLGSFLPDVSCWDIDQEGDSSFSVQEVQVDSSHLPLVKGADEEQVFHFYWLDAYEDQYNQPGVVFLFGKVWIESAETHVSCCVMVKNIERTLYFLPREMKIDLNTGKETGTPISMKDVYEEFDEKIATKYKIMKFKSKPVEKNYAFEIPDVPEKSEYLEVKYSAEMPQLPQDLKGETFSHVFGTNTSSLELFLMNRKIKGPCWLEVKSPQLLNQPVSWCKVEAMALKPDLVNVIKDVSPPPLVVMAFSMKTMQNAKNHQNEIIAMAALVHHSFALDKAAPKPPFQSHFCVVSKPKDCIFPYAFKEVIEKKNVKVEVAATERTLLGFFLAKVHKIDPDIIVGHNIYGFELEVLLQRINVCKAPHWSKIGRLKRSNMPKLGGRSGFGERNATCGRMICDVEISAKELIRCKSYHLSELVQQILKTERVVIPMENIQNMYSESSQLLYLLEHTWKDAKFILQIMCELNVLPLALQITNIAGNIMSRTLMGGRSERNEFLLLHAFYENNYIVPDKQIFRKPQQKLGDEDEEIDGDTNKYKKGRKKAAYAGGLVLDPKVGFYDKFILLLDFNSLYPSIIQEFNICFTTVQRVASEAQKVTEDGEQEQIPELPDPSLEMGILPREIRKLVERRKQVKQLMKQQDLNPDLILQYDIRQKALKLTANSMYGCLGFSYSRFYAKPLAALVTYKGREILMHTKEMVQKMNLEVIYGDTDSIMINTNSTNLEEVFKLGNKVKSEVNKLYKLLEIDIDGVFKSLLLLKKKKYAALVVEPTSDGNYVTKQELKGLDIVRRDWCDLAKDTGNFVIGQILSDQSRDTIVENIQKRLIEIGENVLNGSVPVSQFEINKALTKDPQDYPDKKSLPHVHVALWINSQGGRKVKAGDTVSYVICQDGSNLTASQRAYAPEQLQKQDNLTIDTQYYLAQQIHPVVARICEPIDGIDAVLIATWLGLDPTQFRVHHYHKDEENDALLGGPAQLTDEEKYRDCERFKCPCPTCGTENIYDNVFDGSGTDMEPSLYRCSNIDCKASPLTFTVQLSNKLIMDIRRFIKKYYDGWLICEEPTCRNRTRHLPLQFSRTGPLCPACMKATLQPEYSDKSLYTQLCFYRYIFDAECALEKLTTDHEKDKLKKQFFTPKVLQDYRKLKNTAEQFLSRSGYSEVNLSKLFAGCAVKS
# Assay: Primer extension test for incorporation of nucleotide analog
# Assay type: biochemical
# Conditions: 0.07 units recombinant polymerase α, 0 to 10 minutes
structure (smiles),measurement,value
Cc1cn([C@H]2C[C@H](O)[C@@H](COP(=O)(O)OP(=O)(O)OP(=O)(O)O)O2)c(=O)[nH]c1=O [dTTP],"incorporation, standing start primer-template",extends the original primer length of 18 bases to 19 bases
